# Measurements published in patent US20110257242A1, “3-PHENYL-3-METHOXYPYRROLIDINE DERIVATIVES AS MODULATORS OF CORTICAL CATECHOLAMINERGIC NEUROTRANSMISSION” (NSAB, FILIAL AF NEUROSEARCH SWEDEN AB, SVERIGE, priority 2008, published 2011).
# Tested on: MK-801 pre-treated rats
# Experiment: Locomotor activity in MK-801 pre-treated rats (antipsychotic activity model)
# Conditions: rats pre-treated with MK-801 0.7 mg/kg i.p. 90 minutes before test compound; test compound 100 μmol/kg; recorded between 30 and 60 minutes after administration
smiles,measurement,value
"CCCN1CCC(OC)(c2cccc(F)c2F)C1 (single isomer, unassigned) [Example 4, 3-(2,3-Difluorophenyl)-3-Methoxy-1-Propylpyrrolidine]","Locomotor activity, MK + example",10938 counts/30 min
